Paper PMC10052957, “Exploring Synthetic Dihydrobenzofuran and Benzofuran Neolignans as Antiprotozoal Agents against Trypanosoma cruzi” (Pharmaceutics, 2023)

Test system: amastigote forms of the T. cruzi Tulahuen lac-Z strain
Assay: In vitro antitrypanosomal activity against amastigotes of drug-sensitive T. cruzi Tulahuen lac-Z strain (CPRG/β-galactosidase readout in LLC-MK2 cells)
Details: for SI Tulahuen Lac-Z Strain: CC50 of LLC-MK2 divided by IC50 at 72 h; for IC50: Trypanosoma cruzi, TULAHUEN, LLC-MK2, 72 h, read-out: IC50, Tulahuen Lac-Z Strain; for fold loss (decrease) of antitrypanosomal activity relative to parent compound: derivative versus parent DBN 1 or 2, Tulahuen lac-Z amastigotes

Row | SMILES | SI Tulahuen Lac-Z Strain | IC50 [µM] | fold loss (decrease) of antitrypanosomal activity relative to parent compound
1 | COC(=O)C=Cc1ccc2c(c1)C(C(=O)OC)C(c1ccc(O)cc1)O2 (mixture of isomers) [Compound 1, (±)-trans-dehydrodicoumarate dimethyl ester] | 5.96 | – | –
2 | O=C(Cn1ccnc1[N+](=O)[O-])NCc1ccccc1 [BZN, benznidazole, reference compound] | 20.05 | – | –
3 | COC(=O)C=Cc1cc(OC)c2c(c1)C(C(=O)OC)C(c1ccc(O)c(OC)c1)O2 (centres unmarked) [Compound 2] | 8.49 | 7.96 | –
4 | COC(=O)C=Cc1cc(O)c2c(c1)C(C(=O)OC)C(c1ccc(O)c(O)c1)O2 (centres unmarked) [Compound 3] | 1.90 | 16.2 | –
5 | COC(=O)C=Cc1ccc2c(c1)C(C(=O)OC)C(c1ccc(OC(C)=O)cc1)O2 (centres unmarked) [Compound 4] | 3.15 | 21.4 | two-fold
6 | COC(=O)C=Cc1cc(OC)c2c(c1)C(C(=O)OC)C(c1ccc(OC(C)=O)c(OC)c1)O2 (centres unmarked) [Compound 5] | – | 31.6 | –
7 | COC(=O)C1c2cc(C=CC(=O)O)ccc2OC1c1ccc(O)cc1 (centres unmarked) [Compound 6] | – | 229 | –
8 | COC(=O)/C=C/c1ccc2oc(-c3ccc(O)cc3)c(C(=O)OC)c2c1 [Compound 7] | – | 75 | –
9 | COC(=O)CCc1ccc2oc(-c3ccc(O)cc3)c(C(=O)OC)c2c1 [Compound 8] | – | 119 | –
10 | OCC=Cc1ccc2c(c1)C(CO)C(c1ccc(O)cc1)O2 (centres unmarked) [Compound 9] | – | 247 | 20 fold
11 | COc1cc(C2Oc3c(OC)cc(C=CCO)cc3C2CO)ccc1O (centres unmarked) [Compound 10] | – | 177 | 20 fold
12 | COC(=O)CCc1ccc2c(c1)C(C(=O)OC)C(c1ccc(O)cc1)O2 (centres unmarked) [Compound 12] | – | 289 | 24 fold
13 | COC(=O)CCc1cc(OC)c2c(c1)C(C(=O)OC)C(c1ccc(O)c(OC)c1)O2 (centres unmarked) [Compound 13] | – | 79.3 | 10 fold
14 | OCCCc1ccc2c(c1)C(CO)C(c1ccc(O)cc1)O2 (centres unmarked) [Compound 14] | – | 134 | –
15 | COc1cc(C2Oc3c(OC)cc(CCCO)cc3C2CO)ccc1O (centres unmarked) [Compound 15] | – | 149 | –
16 | COC(=O)C=Cc1ccc2c(c1)C(C(=O)OC)C(c1ccc(OC)cc1)O2 (centres unmarked) [Compound 16] | – | 71.5 | –
17 | COC(=O)C=Cc1cc(OC)c2c(c1)C(C(=O)OC)C(c1ccc(OC)c(OC)c1)O2 (centres unmarked) [Compound 17] | – | 72.3 | –
18 | COC(=O)CCc1cc(OC)c2c(c1)C(C(=O)OC)C(c1ccc(OC)c(OC)c1)O2 (centres unmarked) [Compound 19] | – | 301 | –
